According to the supplement of paper PMC7826260:
This is one part of the list. The data describe in vitro nicking of single-stranded DNA by Rep domains (1 h at 37 °C, 3 µM enzyme); the outer parts of the 90-letter strands are left off. Values are log2 of uncut reads against the no-enzyme pool; strong cutting gives strongly negative numbers. There is no active / inactive call. Because reads are shares of a total, they shift together; uncut strands gain when others are lost, and binding without cutting may add a little.

Columns and labels:
Assay in all cases: uncleaved DNA left, log2 of reads against the no-enzyme library (log2 ratio); higher = less cleavage (more negative = more Rep cleavage of the k-mer); sequences stand for … in CTCGTCCG…ACCGGAGA
[1] = tested on: T1, Rep nickase domain of Muscovy duck circovirus
T1 sequence (residues 1-111, tag not shown): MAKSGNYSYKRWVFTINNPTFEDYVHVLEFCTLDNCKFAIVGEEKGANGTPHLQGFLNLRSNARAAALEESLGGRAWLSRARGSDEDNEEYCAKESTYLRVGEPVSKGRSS
Method: (§1)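 A pool of 90-nt single-stranded DNAs with seven random bases just before the constant AC of the nick site (name = the seven bases) was cut by 3 µM recombinant His6-SUMO-tagged Rep nickase domain (300 nM DNA, 50 mM HEPES pH 8.0, 50 mM NaCl, 1 mM MnCl2, 1 h, 37 °C, three replicates). Uncut DNA was amplified and sequenced.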

[2] = tested on: T2, Rep nickase domain of banana bunchy top virus
T2 sequence (residues 1-94, tag not shown): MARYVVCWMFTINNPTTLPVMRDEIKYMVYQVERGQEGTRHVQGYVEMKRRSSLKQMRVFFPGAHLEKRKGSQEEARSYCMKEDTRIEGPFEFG
Method: as §1

[3] = tested on: T3, Rep nickase domain of cabbage leaf curl virus
T3 sequence (residues 1-116, tag not shown): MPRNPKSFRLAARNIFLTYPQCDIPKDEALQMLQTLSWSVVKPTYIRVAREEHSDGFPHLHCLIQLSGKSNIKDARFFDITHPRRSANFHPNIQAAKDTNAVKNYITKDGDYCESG
Method: as §1

[4] = tested on: T4, Rep nickase domain of chickpea chlorotic dwarf virus
T4 sequence (residues 1-124, tag not shown): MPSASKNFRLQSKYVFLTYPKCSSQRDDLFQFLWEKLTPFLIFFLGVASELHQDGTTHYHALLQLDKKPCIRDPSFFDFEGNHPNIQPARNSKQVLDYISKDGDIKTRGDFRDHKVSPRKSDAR
Method: as §1

[5] = tested on: T5, Rep nickase domain of faba bean necrotic yellows virus
T5 sequence (residues 1-98, tag not shown): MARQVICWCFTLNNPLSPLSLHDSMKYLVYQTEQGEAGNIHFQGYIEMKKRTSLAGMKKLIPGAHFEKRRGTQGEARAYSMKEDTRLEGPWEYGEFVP
Method: as §1

[6] = tested on: T6, Rep nickase domain of maize striate mosaic virus
T6 sequence (residues 1-117, tag not shown): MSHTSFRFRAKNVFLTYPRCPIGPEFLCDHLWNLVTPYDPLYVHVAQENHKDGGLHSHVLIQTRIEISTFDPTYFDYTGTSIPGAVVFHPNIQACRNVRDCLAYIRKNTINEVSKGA
Method: as §1

[7] = tested on: T7, Rep nickase domain of porcine circovirus 2
T7 sequence (residues 2-116, tag not shown): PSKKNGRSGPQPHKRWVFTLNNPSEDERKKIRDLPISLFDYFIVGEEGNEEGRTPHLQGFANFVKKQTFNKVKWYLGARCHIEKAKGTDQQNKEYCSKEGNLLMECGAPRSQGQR
Method: as §1

[8] = tested on: T8, Rep nickase domain of tomato golden mosaic virus
T8 sequence (residues 1-124, tag not shown): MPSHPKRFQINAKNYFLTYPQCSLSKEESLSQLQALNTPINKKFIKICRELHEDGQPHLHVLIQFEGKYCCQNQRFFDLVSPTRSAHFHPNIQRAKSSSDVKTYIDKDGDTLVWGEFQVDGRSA
Method: as §1

[9] = tested on: T9, Rep nickase domain of tomato yellow leaf curl virus
T9 sequence (residues 1-136, tag not shown): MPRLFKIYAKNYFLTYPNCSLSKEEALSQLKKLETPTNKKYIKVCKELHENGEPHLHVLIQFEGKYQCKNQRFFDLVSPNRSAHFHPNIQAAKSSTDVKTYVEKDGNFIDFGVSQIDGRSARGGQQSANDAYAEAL
Method: as §1

[10] = tested on: T10, Rep nickase domain of wheat dwarf virus
T10 sequence (residues 1-137, tag not shown): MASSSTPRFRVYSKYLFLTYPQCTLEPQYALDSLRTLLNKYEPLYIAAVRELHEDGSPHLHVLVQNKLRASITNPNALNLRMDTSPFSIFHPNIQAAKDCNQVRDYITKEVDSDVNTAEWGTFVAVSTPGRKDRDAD
Method: as §1

| Sequence | uncleaved DNA left (log2) [1] | uncleaved DNA left (log2) [2] | uncleaved DNA left (log2) [3] | uncleaved DNA left (log2) [4] | uncleaved DNA left (log2) [5] | uncleaved DNA left (log2) [6] | uncleaved DNA left (log2) [7] | uncleaved DNA left (log2) [8] | uncleaved DNA left (log2) [9] | uncleaved DNA left (log2) [10] |
| --- | --- | --- | --- | --- | --- | --- | --- | --- | --- | --- |
| CAACCAC | -0.14 | -0.0522 | -0.217 | -1.76 | -0.0885 | -0.771 | -1 | -0.134 | -0.122 | -0.0366 |
| ATGACAT | 0.0829 | 0.112 | 0.826 | 1.94 | -0.0814 | 2.13 | 0.193 | 0.0624 | 0.0951 | 0.224 |
| ACGACTT | -0.0429 | 0.101 | 0.161 | 0.285 | 0.0904 | 1.45 | -0.093 | 0.0734 | -0.00623 | 0.197 |
| GTATACT | -2.08 | -0.0648 | -0.0363 | 0.215 | 0.0084 | 1.66 | -1.87 | -0.0159 | 0.0597 | -0.0336 |
| ACCGTTT | -0.25 | -0.134 | -0.347 | -1.83 | -0.0925 | -0.661 | -0.0865 | -0.0717 | -0.235 | -0.22 |
| GTTGCAT | 0.0682 | 0.151 | 0.401 | 1.01 | 0.0504 | 0.918 | 0.174 | 0.0523 | 0.137 | 0.0524 |
| GATAGGG | 0.0787 | 0.107 | 0.0167 | 0.341 | 0.0378 | -0.083 | 0.195 | 0.0523 | 0.14 | 0.0582 |
| CCTGGGG | 0.151 | 0.262 | 0.361 | 0.683 | 0.0815 | 0.423 | 0.226 | 0.12 | 0.0302 | 0.069 |
| CTCTCGA | -0.153 | -0.0616 | -0.468 | -0.896 | -0.000189 | -1.15 | 0.00989 | 0.0166 | 0.0024 | -0.113 |
| TTTCCGC | -0.114 | -0.211 | -0.509 | -0.774 | -0.203 | -1.11 | -0.584 | -0.194 | -0.182 | -0.283 |
| GGTTGGT | -0.088 | -0.0405 | 0.328 | 0.845 | -0.0738 | 1.23 | -0.465 | -0.0486 | 0.0555 | 0.0398 |
| GATGCTA | 0.0269 | 0.0805 | 0.238 | 0.207 | 0.0374 | 0.458 | 0.0212 | 0.18 | 0.0894 | 0.116 |
| TCAGGCG | -0.0514 | -0.0368 | -0.637 | 0.343 | -0.0237 | -0.635 | 0.0872 | 0.0175 | 0.0336 | -0.0617 |
| ACTAGTA | -0.0945 | -0.0178 | -0.134 | -1.07 | 0.0272 | -0.67 | 0.000988 | 0.0274 | -0.0359 | 0.0464 |
| GTATTTT | -0.532 | -0.0358 | 0.169 | 0.708 | -0.164 | 1.76 | -0.52 | 0.0325 | 0.101 | 0.0248 |
| CTCAACG | 0.0397 | 0.0313 | -0.865 | -0.378 | 0.123 | -1.07 | 0.245 | 0.0397 | 0.0747 | 0.0282 |
| GAGGTTG | 0.0746 | 0.024 | 0.0969 | 0.292 | 0.0609 | 0.673 | 0.0306 | 0.0993 | 0.0075 | -0.0357 |
| TGGGTCC | 0.0313 | 0.107 | 0.697 | 1.33 | -0.0104 | 1.82 | 0.218 | -0.0133 | 0.0603 | 0.127 |
| TTGTTCT | -2.04 | -0.184 | -0.0194 | -1.71 | -0.159 | -0.519 | -3.16 | -0.14 | -0.0638 | -0.0852 |
| TGTTATT | -3.19 | -2.75 | -0.176 | -2.58 | -0.391 | 0.433 | -3.75 | -0.336 | 0.0756 | -1.26 |
| TGTTACC | -3.19 | -0.387 | -2.45 | -2.24 | -2.22 | 0.0345 | -3.26 | -2.43 | -0.0713 | -2.58 |
| ACGTTAT | -0.118 | -0.027 | -0.0815 | -0.716 | 0.0998 | -0.453 | -1.54 | 0.0669 | -0.147 | 0.0298 |
| CATATCC | 0.069 | 0.158 | 0.0457 | -0.0892 | -0.0563 | -0.485 | 0.051 | 0.0265 | 0.0901 | 0.149 |
| CTGACGC | -0.0505 | -0.211 | -0.367 | -0.327 | -0.183 | -0.834 | 0.00796 | -0.128 | -0.104 | -0.0721 |
| TCTATCA | -0.039 | 0.099 | 0.509 | 0.243 | -0.0311 | 0.812 | 0.0613 | -0.0229 | 0.124 | 0.205 |
| TTGTAAT | -2.95 | -0.72 | 0.2 | -0.887 | -1.1 | -0.272 | -3.12 | 0.0531 | 0.191 | 0.124 |
| TTGTCAT | -0.0406 | 0.0809 | 0.241 | -0.0862 | -0.0775 | -0.0538 | -0.967 | -0.0161 | 0.188 | 0.141 |
| TCAAATA | -0.00543 | -0.0396 | -0.146 | -1.57 | 0.1 | -0.509 | -0.0273 | 0.0469 | 0.0204 | -0.027 |
| CGATAGA | 0.0728 | 0.0518 | -0.0384 | 0.232 | 0.127 | -0.205 | 0.0728 | -0.022 | 0.0264 | 0.0958 |
| CCAAGCA | -0.0512 | 0.0217 | 0.117 | 1.09 | -0.0392 | 0.887 | 0.167 | 0.0124 | -0.135 | 0.0444 |
